In PubChem BioAssay AID651820 (National Center for Advancing Translational Sciences (NCATS), 2012):
Hit rate of the full screen: of about 340,000 compounds, about 12,000 (3.5%) were called active. The shares of active, inactive and inconclusive entries below differ from those in the screen. The call rests on the fitted dose curve; in most records, active means well fitted inhibition curve with a large enough effect; inconclusive means small, poorly fitted or top-dose-only effect, or another doubt; inactive means no such curve, though single readings can be large or run the other way. No potency is given beside an inconclusive call; the fits are too rough.

assay: qHTS Assay for Inhibitors of Hepatitis C Virus (HCV); conditions: Huh7.5.1 HCVcc-Cre (HCVcc is cell-culture hepatitis C virus) infection, luciferase reporter, 44 h; activity change, negative = inhibition: at 41.8 µM (top of the series) unless noted
How it was run: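 Luciferase read-out (15 sec integration) after a 15 min room-temperature substrate step quantifies HCVcc-Cre infection. Cells, 1,000 per well, had compound added 4 h post-plating, then virus at ~0.5 moi, and were cultured 44 h.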
On the % scale 0 is the no-effect control and ±100 the full control effect; potency means the concentration at half of the fitted maximal effect; tags describe the fitted curve by direction and shape.

Row | SMILES | Potency | activity change, negative = inhibition
1 | COc1ccc(CN2CCN(Cc3cc(=O)oc4cc(C)ccc34)CC2)c(OC)c1OC | inconclusive [inhibitor, single point] | –
2 | CCCn1c(SCC(=O)Nc2nnc(CC)s2)nnc1-c1ccncc1 | inactive | –
3 | CC(C)(C)C(=O)/C(=C\c1ccc([N+](=O)[O-])cc1)n1cncn1 | active: 3.16 µM | –
4 | COc1ccc(C)cc1NC(=O)C(OC(=O)CNC(=O)c1ccc(Br)cc1)c1ccccc1 (centres undefined) | inconclusive [inhibitor, single point] | –
5 | Nc1ccc(C(=O)OCCCc2nc3cc4ccccc4cc3[nH]2)cc1 | inactive | –
6 | COc1ccc(F)cc1S(=O)(=O)NCC1CCCO1 (centres undefined) | inactive | –
7 | COc1ccc(CC(=O)Nc2nn(C)c3nc4c(C)cccc4cc23)cc1 | – | inconclusive: -31.3% [inhibitor]
8 | Cc1cc(NS(=O)(=O)c2ccc(NC(=O)COc3ccccc3[N+](=O)[O-])cc2)no1 | inactive | –
9 | COc1ccccc1CNC(=O)CCCc1cn(C)c2ccccc12 | inconclusive [inhibitor, partial curve] | –
10 | CC1Cc2ccccc2N1S(=O)(=O)c1cccc(C(=O)c2nccn2C)c1 (centres undefined) | inconclusive [inhibitor, single point] | –
11 | Cc1ccc(-c2nc(C)sc2CC(=O)Nc2nnc(C)s2)cc1 | inactive | –
12 | CCOC(=O)C1=C(C)NC(=O)NC1c1ccc(OCC(=O)Nc2ccccc2)c(OC)c1 (centres undefined) | inconclusive [inhibitor, full curve] | –
13 | O=C(N/C(=C\c1cccc(Br)c1)C(=O)N1CCCCC1)c1ccco1 | inactive | –
14 | CCOC(=O)C1CCCN(C(=O)c2ccc3nc(-c4ccccc4)c(-c4ccccc4)nc3c2)C1 (centres undefined) | inactive | –
15 | CN(C)c1ccc(NC(=O)CSc2nc(N)c(C(=O)Nc3ccc(N(C)C)cc3)s2)cc1 | active: 10 µM | –
16 | O=C(CSCc1ccccc1)Nc1ccc2c(c1)C(=O)NC2=O | inactive | –
17 | CCCc1nc(SCC(=O)NCc2ccco2)c2c(=O)n(C)c(=O)n(C)c2n1 | inconclusive [inhibitor, full curve] | –
18 | O=C(O)CCc1ccc(-c2cccs2)n1NC(=O)c1ccc(Cl)cc1 | inactive | –
19 | CC(Sc1nnc(NC2CC2)s1)C(=O)Nc1ccc(N2CCOCC2)cc1 (centres undefined) | inactive | –
20 | CN1c2ccc([N+](=O)[O-])cc2N(C)C1(C)c1ccccc1 (centres undefined) | inconclusive [inhibitor, single point] | –
21 | O=C(Nc1cc(=O)c2ccccc2o1)N1CCCCC1 | inactive | –
22 | Cc1ccc(CN2C(=O)NC(=O)C3(Cc4c(nc5ccccn5c4=O)N4CCCCCC43)C2=O)cc1 (centres undefined) | inconclusive [inhibitor, single point] | –
23 | NNc1ccc(Cl)nn1 | inactive | –
24 | CN(C)c1ccc(C(CNS(=O)(=O)c2ccc(F)cc2)c2c[nH]c3ccccc23)cc1 (centres undefined) | inconclusive [inhibitor, single point] | –
25 | CC(=O)NC(=S)Nc1cccc2ccc(C)nc12 | inconclusive [inhibitor, partial curve] | –

Row | SMILES | Potency | activity change, negative = inhibition
26 | O=C(NC1CCCCCCC1)c1cc(COc2ccc3ncccc3c2)on1 | inconclusive [inhibitor, partial curve] | –
27 | Cc1ccc(-n2nc3c(=O)n(C(C)C(=O)NCCC4=CCCCC4)nc(C)c3c2C)cc1 (centres undefined) | active: 10 µM | –
28 | O=C(N/N=C/C(Br)=C/c1ccccc1)c1ccccc1F | inactive | –
29 | Cc1c(NS(=O)(=O)c2cccc([N+](=O)[O-])c2)c(=O)n(-c2ccccc2)n1C | inactive | –
30 | CC1(C)Cc2nc3sc4c(NCCO)ncnc4c3cc2CS1 | inconclusive [inhibitor, partial curve] | –
31 | CCOc1ccc(NC(=O)c2cc(Cl)nc3ccccc23)cc1 | inconclusive [inhibitor, single point] | –
32 | CC(/C=N/NC(=O)CSc1nc2ccccc2n1C)=C\c1ccco1 | inconclusive [inhibitor, single point] | –
33 | CCN(c1cccc(C)c1)S(=O)(=O)c1ccc2c(c1)CCCN2C(C)=O | inactive | –
34 | O=C(Cn1c(=S)[nH]c2ccccc2c1=O)N1CCN(c2ccc(F)cc2)CC1 | inactive | –
35 | S=C(NCCC(c1ccccc1)c1ccccc1)Nc1cccc(Cl)c1 | inconclusive [inhibitor, single point] | –
36 | CC(=O)N1CCc2c(sc3c2c(=O)n(-c2ccccc2)c(=O)n3Cc2ccccc2Cl)C1 | inconclusive [inhibitor, single point] | –
37 | Cn1c(-c2ccccc2)c[n+]2c1-c1ccccc1C2 | active: 11.2 µM | –
38 | Cc1nnnn1CC(=O)Nc1cccc([N+](=O)[O-])c1 | inactive | –
39 | COC(=O)c1cn(-c2ccccc2)nc1-c1ccc(OC)c(OC)c1 | active: 7.94 µM | –
40 | CC(NS(=O)(=O)c1cccc(C(=O)N(C)Cc2ccc(N3CCOCC3)cc2)c1)c1ccccc1 (centres undefined) | inactive | –
41 | Cc1ccc(-c2csc3nnc(SCC(=O)NCc4ccc5c(c4)OCO5)n23)cc1 | active: 6.31 µM | –
42 | COc1ccccc1N(CC(=O)NC1CCCC1)S(=O)(=O)c1cccc(C(F)(F)F)c1 | inactive | –
43 | Cc1ccc(S(=O)(=O)CCC(=O)NCCN2C(=O)S/C(=C\c3ccccc3)C2=O)cc1 | inconclusive [inhibitor, single point] | –
44 | CCOc1ccc(Oc2ccccc2NC(=O)C2=COCCO2)cc1 | inconclusive [inhibitor, full curve] | –
45 | CC(=O)Nc1ccc(S(=O)(=O)N(C)c2ccc(OCCOc3cccc(C)c3)cc2)cc1 | inconclusive [inhibitor, full curve] | –
46 | O=C(Nc1cccc(Cl)c1N1CCOCC1)c1ccc(Br)o1 | inconclusive [inhibitor, partial curve] | –
47 | CCOC(=O)c1c(C)[nH]c(C)c1C(=O)COC(=O)c1ccc(Cl)c(S(N)(=O)=O)c1 | inconclusive [inhibitor, partial curve] | –
48 | CCn1cc(C(=O)NCC(OC)OC)c(=O)c2cc(S(=O)(=O)N(C)C3CCCCC3)ccc21 | inactive | –
49 | COc1ccccc1N1CCN(CC(=O)Nc2ccc(S(=O)(=O)N3CCCCCC3)cc2)CC1 | inconclusive [inhibitor, partial curve] | –
50 | CCCCc1ccc(NC(=S)NCc2cccnc2)cc1 | inconclusive [inhibitor, single point] | –

Row | SMILES | Potency | activity change, negative = inhibition
51 | COc1ccc2cc1Oc1ccc(cc1)C[C@H]1c3cc(c(OC)cc3CCN1C)Oc1c(OC)c(OC)cc3c1[C@@H](C2)N(C)CC3 | inconclusive [inhibitor, single point] | –
52 | O=C(c1ccc(C#Cc2ccccc2)o1)N1CCN(c2ccccn2)CC1 | inconclusive [inhibitor, partial curve] | –
53 | CCOC1=C/C(=C/c2c(N)n3nc(-c4ccccc4)sc3nc2=O)C=CC1=O | inactive | –
54 | Cc1cc2ccccc2n1CCNC(=O)Cc1cccc2ccccc12 | active: 6.31 µM | –
55 | COc1cc(C(=O)NCCN2CCN(C(=O)c3cc(OC)c(OC)c(OC)c3)CC2)cc(OC)c1OC | inconclusive [inhibitor, single point] | –
56 | CC(NC(=O)C(=O)N1CCCCC1)C(c1cccs1)N1CCN(C)CC1 (centres undefined) | inactive | –
57 | COc1cc(C)c(C(N)=O)c(OC)n1 | inactive | –
58 | O=C(Nc1ccc(N2CCN(C(=O)c3ccccc3)CC2)cc1)c1cc2ccccc2o1 | inconclusive [inhibitor, full curve, poor fit] | –
59 | Cc1ccc2c(c1)N(CC(=O)NCCC1=CCCCC1)C(=O)c1cccnc1O2 | inactive | –
60 | Cc1cccc(-n2cnc3c(c2=O)c2nc4ccccc4nc2n3Cc2ccco2)c1 | inconclusive [inhibitor, single point] | –
61 | CN1CCCC1CCNc1ccc2c(=O)c3ccccc3oc2c1 (centres undefined) | inconclusive [inhibitor, full curve, poor fit] | –
62 | Cc1ccc(C(=O)NCc2cccc(C(F)(F)F)c2)cc1S(=O)(=O)N1CCCCC1 | – | inconclusive: -58% [inhibitor]
63 | CCN(CC)C(NC(=O)Cc1ccccc1)C(Cl)(Cl)Cl (centres undefined) | inconclusive [inhibitor, partial curve] | –
64 | Cc1nc2sc(C(c3ccco3)N3CCN(C(c4ccccc4)c4ccccc4)CC3)c(O)n2n1 (centres undefined) | inconclusive [inhibitor, partial curve, poor fit] | –
65 | CC(NC(=O)C12CC3(C)CC(C)(CC(C)(C3)C1)C2)C(=O)O (centres undefined) | inactive | –
66 | Cc1ccc(S(=O)(=O)N2CCCC2C(=O)Nc2nccs2)cc1 (centres undefined) | inconclusive [inhibitor, single point] | –
67 | CC1=C(C(=O)Nc2cc(C(=O)N(C)Cc3ccccc3)ccc2C)SCCO1 | inactive | –
68 | Cc1nn(-c2ccc(N3CCOCC3)nn2)c(C)c1CCC(=O)Nc1ccc(F)cc1 | inconclusive [inhibitor, single point] | –
69 | O=S(=O)(c1ccc(Br)cc1)n1ccc2ccccc21 | inconclusive [inhibitor, single point] | –
70 | COc1ccc2c(c1)OC[C@H]1[C@H]2N2C(=O)c3ccc(F)cc3NC(=O)[C@@]2(C)[C@H]1c1ccccc1 | inconclusive [inhibitor, single point] | –
71 | Fc1cccc(NC(=S)NNc2ccccc2)c1 | inactive | –
72 | O=C(COC(=O)c1c(F)cccc1F)NCc1ccc2c(c1)OCO2 | inactive | –
73 | Nc1nn(-c2cccc(F)n2)cc1-c1ccc(Cl)cc1 | inactive | –
74 | CCC(C)(C)c1ccc(OCCCC[n+]2ccc(C)cc2)c(C(C)(C)CC)c1 | inconclusive [inhibitor, full curve, poor fit] | –
